SMILES strings stand for the structures. The list shows a part of the results. These are further read-outs of the screen, such as a control signal, another cell line or another target. No call is given for them. Most of these compounds were active or inconclusive in the main read-out, so they are no random draw. Words in brackets tell the shape of the fitted curve; partial curves, single points and poor fits give uncertain potencies.
Tags give direction and shape of the fitted curve.

The target in the assay is Histamine N-methyltransferase (Homo sapiens) (UniProt P50135). The assay can be described thus: Confirmatory Screen for Target Class Profiling of Small Molecule Inhibitors of Methyltransferases (AID 1745852).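 Note: inhibitor potency for blocking SAH production.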 The following applies: MTase-Glo luminescence, SAH detection, recombinant enzyme; measured here: HNMT inhibition potency.
Chain of UniProt P50135 (P50135 whole entry, looked up): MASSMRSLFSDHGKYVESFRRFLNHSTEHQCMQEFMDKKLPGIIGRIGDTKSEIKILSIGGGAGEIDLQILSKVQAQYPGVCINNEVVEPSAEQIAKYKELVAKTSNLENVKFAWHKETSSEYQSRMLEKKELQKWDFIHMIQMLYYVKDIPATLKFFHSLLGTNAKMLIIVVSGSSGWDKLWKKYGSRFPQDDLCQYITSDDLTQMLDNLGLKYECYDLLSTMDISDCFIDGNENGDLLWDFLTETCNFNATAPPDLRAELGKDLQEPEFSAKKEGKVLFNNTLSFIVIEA
Turning to `Cc1cnccc1NCCn1ccnc1-c1cc2n(n1)CCCNC2`, the half-inhibitory concentration (IC50) was 4.82 µM [falling, partial curve]. On to `COc1ccc(CN2CCCC(COc3ccccc3C(=O)NC3CC3)C2)c(OC)c1` (configuration not stated), for which the IC50 was 21.5 µM [falling, partial curve]. `CC(C)(C[C@@](O)(Cc1cc2ccncc2[nH]1)C(F)(F)F)c1cc(F)ccc1O`: the IC50 is 19.2 µM [falling, partial curve]. The value for `Cn1c(C(=O)NCCN2CCCCC2)cc2c1CCN(Cc1cccc(F)c1)C2` was 19.2 µM [falling, partial curve]; that for `Cc1noc(C)c1-c1cc(-c2ccc(CN(C)C)cc2)cn2cncc12` was 11.1 µM [falling, partial curve]. Turning to `O=C(CCC[C@@H]1[C@H]2CCCN3CCC[C@@H](CN1Cc1ccccc1)[C@@H]23)Nc1cccnc1`, the concentration for half-maximal inhibition (IC50) was 24.1 µM [falling, single point]. In the case of `Cc1noc2c(NC3CCN(C)CC3)cc(-c3cccs3)nc12`, the IC50 is 17.5 µM [falling, partial curve]. On to `Cc1noc(C)c1-c1cnc(Nc2ccncc2)c2c1CCO2`, for which the 50% inhibitory concentration (IC50) was 31.2 µM [falling, partial curve]. The value for `CN(CCCNC(=O)Cn1ccc2cc(S(=O)(=O)N3CCCCC3)ccc21)C1CCCCC1` was 19.2 µM [falling, partial curve]. `CCN(CC)c1cc(CCC(=O)N2CCN(c3cccc(OC)c3)CC2)ccn1`: the half-inhibitory concentration (IC50) was 7.64 µM [falling, partial curve]. `CC(C)c1nccn1CCCNC(=O)c1ccc(-c2cccc(F)c2)nc1`: the half-inhibitory concentration (IC50) was 21.5 µM [falling, partial curve]. The value for `COc1ccc(CNc2cc3c(cn2)CN(C)CCN3)cc1OC` was 6.23 µM [falling, full curve].
